The other results are listed elsewhere or left out. Many values rest on one well or one pass, so single values are uncertain.
System: Salmonella enterica serovar Typhimurium SL1344
Experiment: bacterial growth OD600 after 18 h in MHB with 0.5 µg/mL polymyxin B; higher = more bacterial growth (less inhibition)
Settings: 25 µM; polymyxin B 0.5 µg/mL; system: broth
Description: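 Secondary screen of the 553 primary hits at 25 µM. (i) S. Typhimurium SL1344 grown in Mueller-Hinton broth with 0.5 µg/mL polymyxin B, OD600 read after 18 h. (ii) SAFIRE assay: RAW 264.7 macrophages infected with S. Typhimurium sifB::gfp (MOI 30); compound added 2 h post-infection; cells fixed at 18 h; GFP-positive pixel fraction per macrophage imaged by confocal microscopy and expressed as % of DMSO control.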
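Note: polymyxin B level opens the outer membrane while sparing the inner membrane, with novobiocin wells as reference growth inhibitor.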

SMILES	bacterial growth OD600
COc1ccc2c(c1)SC(c1ccc(OC)c(C)c1)CCN2Cc1cccc2nccnc12 (stereo not given)	0.381
O=C(NCC1OCCc2ccccc21)c1coc(COc2ccccc2)n1 (stereo not given)	0.19
COc1cccc(CC(C2CCN(C(=O)CC3CCCCC3)CC2)N(C)C(=O)c2ccsc2)c1 (stereo not given)	0.007
COc1ccccc1CN1CCc2c([nH]c3ccccc23)C1c1cccc(O)c1 (stereo not given)	0.001
O=S(=O)(c1ccccc1C(F)(F)F)N1CCC(CO)(Cc2ccccc2Cl)CC1	-0.007
O=C(C1CC12CCCCC2)N1CCc2onc(-c3ccccc3F)c2C1 (stereo not given)	0
O=C(c1cc2cc(F)ccc2[nH]1)N1CCCC(CO)(Cc2cccc(Cl)c2)C1 (stereo not given)	-0.002
CN(CCc1ccccc1)C1(C(=O)N[C@H]2CC[C@H](O)CC2)Cc2ccccc2C1	0.006
O=C(c1ccc(NC2CC2)nc1)N1CCCC(c2ccccc2)CC1 (stereo not given)	0.007
O=C(c1cccc(F)c1)N(Cc1ccncc1)Cc1cccc(OCCc2ccc(F)cc2)c1	-0.007
Cc1cc(-c2nn(-c3ccccc3F)cc2CN(C)Cc2ccon2)c(C)s1	0.003
O=C(NC1(c2ccccc2)CC1)c1cc(COc2ccc(F)c(F)c2)on1	0.003
COc1cc(C(=O)N(Cc2cccc(OCCc3cccs3)c2)C2CCCC2)cc(OC)c1OC	0.004
C=CCO[C@H]1[C@H](NC(=O)CSC)c2ccccc2C12CCN(Cc1cc(CC(C)C)[nH]n1)CC2	0.589
CCOC(=O)C1(Cc2ccccc2C)CCCN(C(=O)c2sccc2C)C1 (stereo not given)	0.004
Cc1ccccc1-c1cnc(-c2ccncc2)nc1C1CCCN(Cc2ccc(F)c(F)c2)C1 (stereo not given)	-0.003
CN1C(=O)CC(CC(=O)N2CCCC(C(=O)c3nccn3C)C2)(c2ccc(-c3ccccc3)cc2)C1=O (stereo not given)	-0.013
CC(C)Oc1cccc(C(=O)C2CCCN(C(=O)/C=C/c3cccs3)C2)c1 (stereo not given)	-0.01
COc1ccc2c(C)nc(N3CCCC(C(=O)N4CCC(C(O)c5ccccc5)CC4)C3)nc2c1 (stereo not given)	-0.004
COc1cc(CN2Cc3cc(C)ccc3OC(c3ccsc3)C2)ccc1O (stereo not given)	-0.002

SMILES	bacterial growth OD600
COc1ccc(-c2nn(-c3ccccc3C)cc2CN(C)Cc2cnccn2)cc1F	0.42
O=C(Nc1ccc(-c2cccc(F)c2)cc1)C1CCCN(C(=O)Cc2ccccn2)C1 (stereo not given)	0.001
Cc1cc(C)n2nc(C(=O)N(Cc3ccncc3)Cc3cccc(OCCc4ccc(F)cc4)c3)cc2n1	-0.003
O=C(CN1CC(c2ccccc2)CC1=O)NCCN1Cc2ccccc2OC(c2ccccc2F)C1 (stereo not given)	-0.009
CC(Cc1cccnc1)NC(=O)c1cc(COc2cccc3cnccc23)on1 (stereo not given)	0.563
CCOC(=O)C1(Cc2ccc(Cl)cc2)CCN(C(=O)C(C)n2nc(C)cc2C)CC1 (stereo not given)	-0.011
CN(Cc1ccccc1)C(=O)c1cn(CCCc2ccccc2)nn1	0.404
Cc1cccc(CNCC2(O)CCCN(CC3CC3)C2=O)n1 (stereo not given)	0.637
COCCNC(=O)c1ccc(OC2CCN(Cc3ccccc3OC)CC2)c(Cl)c1	0.637
CN(C(=O)c1ccccn1)C(Cc1ccccc1)C1CCN(C(=O)/C(F)=C/c2ccccc2)CC1 (stereo not given)	0.022
O=C1N(C2Cc3ccccc3C2)C[C@@H]2C[C@@H](c3cccn3-c3cccnc3)N3CCC[C@@]123	0.51
CC1CN(Cc2nc3ccccc3n2C)Cc2cc(Cl)ccc2O1 (stereo not given)	0.002
CO[C@H]1[C@H](NC(=O)c2ccccn2)c2ccccc2C12CCN(C(=O)c1ccc(CC(C)C)cc1)CC2	0.001
O=C(NCC1CCCN(S(=O)(=O)/C=C/c2ccccc2)C1)c1ccco1 (stereo not given)	0.008
Cc1cc(CN(C)c2ccc(-c3nc(-c4ccccc4F)no3)cn2)on1	0.576
O=S(=O)(CC1CC1)c1ncc(CN2CCSCC2)n1CC1CCCCC1	0.001
COc1ccc(CC2(CCC(=O)N3CC4(C)CC3CC(C)(C)C4)CCC(=O)N2)c2ccccc12 (stereo not given)	0.006
COc1cccc(CNC(=O)C2(N3C[C@@H](C)O[C@@H](C)C3)Cc3ccccc3C2)c1	0.007
c1ccc(CCCc2noc(-c3ccc(N4CCCO4)nc3)n2)cc1	0.003
Cc1nc(N2CCC(C(=O)N(C)Cc3ccc(C(F)(F)F)cc3)CC2)nc2ccccc12	-0.008
